This note sets out measurements from patent US7235366B1 (priority 1993, dated 2007).

pIC50: −log10 of the molar value. Where a name gives a salt, the structure may show the parent alone.

In this experiment the target is mouse delta opioid receptor msl-2 (mORD1) (Mus musculus, UniProt P32300). Kind of experiment: biochemical.

For the molecule `CCC12CCN(CC3(O)CC3)C(Cc3ccc(O)cc31)C2(C)C` (racemic) [Bremazocine], the pIC50 is 7.72.
For `CCN(CC)CCOCCOC(=O)C1(c2ccccc2)CCCC1` [Carbetapentane citrate], the negative logarithm of the IC50 (pIC50) was under 6.00.
With `COc1ccc2c(c1)[C@]13CCCC[C@@H]1[C@H](C2)N(C)CC3` [Dextromethorphan] the figure was under 6.00; with `CN1CC[C@@]23CCCC[C@@H]2[C@@H]1Cc1ccc(O)cc13` [Dextrorphan], under 6.00; with `CC[C@]12CCN(CC3CC3)[C@H](C(=O)c3ccc(O)cc31)[C@@H]2C` [Ethylketocyclazocine], 6.21.
In the case of `CN1CC[C@]23CCCC[C@H]2[C@H]1Cc1ccc(O)cc13` [Levorphanol] it was 6.99.
